# From PMC4336329 (PLoS ONE, 2015)
# In all, about 310,000 compounds went through this assay and about 2,200 (0.71%) showed an effect of 50% or more. Effects have a minus sign here. Some of the results follow.
# Target: human ether-à-go-go-related gene (hERG) potassium channel (human, UniProt Q12809)
# Experiment: primary screen, population patch clamp on CHO cells stably expressing hERG
# human ether-à-go-go-related gene (hERG) potassium channel, sequence (Q12809 whole entry, looked up): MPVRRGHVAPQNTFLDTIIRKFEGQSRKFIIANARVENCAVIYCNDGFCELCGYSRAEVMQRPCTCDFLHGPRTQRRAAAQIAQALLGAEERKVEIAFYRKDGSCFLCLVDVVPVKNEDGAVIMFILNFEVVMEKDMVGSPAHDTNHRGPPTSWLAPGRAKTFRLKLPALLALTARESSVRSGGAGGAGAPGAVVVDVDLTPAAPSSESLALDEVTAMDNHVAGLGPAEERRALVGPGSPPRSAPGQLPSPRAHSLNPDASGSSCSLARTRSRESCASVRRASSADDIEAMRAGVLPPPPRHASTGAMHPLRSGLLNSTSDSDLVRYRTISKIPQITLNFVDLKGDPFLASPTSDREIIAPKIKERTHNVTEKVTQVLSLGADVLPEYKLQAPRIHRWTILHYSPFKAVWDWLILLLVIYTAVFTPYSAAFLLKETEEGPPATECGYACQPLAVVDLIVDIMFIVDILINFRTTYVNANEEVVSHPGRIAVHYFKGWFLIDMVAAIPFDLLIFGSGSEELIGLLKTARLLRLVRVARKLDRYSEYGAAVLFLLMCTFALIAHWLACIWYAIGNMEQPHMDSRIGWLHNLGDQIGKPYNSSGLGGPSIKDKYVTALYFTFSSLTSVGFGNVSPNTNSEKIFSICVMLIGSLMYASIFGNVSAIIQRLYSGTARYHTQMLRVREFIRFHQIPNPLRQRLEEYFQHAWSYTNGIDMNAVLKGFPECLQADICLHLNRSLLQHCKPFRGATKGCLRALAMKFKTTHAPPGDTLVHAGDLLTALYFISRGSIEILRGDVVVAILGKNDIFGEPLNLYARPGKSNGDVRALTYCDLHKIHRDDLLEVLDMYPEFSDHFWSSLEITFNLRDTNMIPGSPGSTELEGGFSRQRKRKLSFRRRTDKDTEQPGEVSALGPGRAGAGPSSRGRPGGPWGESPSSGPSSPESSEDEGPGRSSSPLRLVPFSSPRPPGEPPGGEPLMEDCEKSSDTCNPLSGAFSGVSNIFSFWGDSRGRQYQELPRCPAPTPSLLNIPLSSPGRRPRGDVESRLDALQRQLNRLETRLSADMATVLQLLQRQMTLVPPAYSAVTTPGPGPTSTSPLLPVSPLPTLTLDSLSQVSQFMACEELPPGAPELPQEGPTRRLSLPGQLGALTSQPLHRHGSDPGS
row,SMILES,"hERG current change (%, negative = inhibition) at 1uM"
1,C[C@@H](C(=O)Nc1ccc2ccccc2c1)[C@H]1C[C@]1(C)[C@H](NC(=O)c1cccnc1)c1ccccc1,5.03%
2,N=c1c2c(ncn1Cc1ccco1)Oc1ccc3ccccc3c1C2c1ccccc1 (stereo not shown),3.87%
3,COc1cccc(C(=O)N(C)C(C)c2nc3ccccc3s2)c1 (stereo not shown),3.93%
4,CCc1c(C)sc(NC(=O)c2cccs2)c1C(=O)OC(C)C,9.07%
5,CCCc1nnc(NC(=O)CCC(=O)N2CCN(c3ccccc3)CC2)s1,2.72%
6,N#Cc1sc2nc(-c3cccs3)cc(-c3ccc(Cl)cc3)c2c1N,6.9%
7,O=C1C2C3C=CC(C2C(=O)N1C1CCCCC1)C1C2C(=O)N(C4CCCCC4)C(=O)C2C31 (stereo not shown),3.92%
8,COc1cccc(-c2nn(C)c3sc(C(=O)N4CCOCC4)cc23)c1,7.32%
9,COC(=O)C1(C)NC(c2cccs2)C2C(=O)N(c3ccc(F)cc3)C(=O)C21 (stereo not shown),16.2%
10,O=C(COC(=O)c1ccc(Cl)c(S(=O)(=O)N2CCOCC2)c1)Nc1ccc2[nH]c(=O)[nH]c2c1,11.2%
11,Cc1cc(C)c2cccc(N)c2n1,20.4%
12,CCCCNS(=O)(=O)c1ccc2nc(-c3cccnc3)cc(C(=O)NCCCN(CC)CC)c2c1,-17%
13,Cc1ccc(NS(=O)(=O)c2ccc(C(=O)OCC(=O)N3CCCCC3)cc2)cc1,3.74%
14,O=C(Cc1ccc(F)cc1)NCc1cccnc1,8.09%
15,Br.CCn1c(=N)n(CC(=O)c2ccc(Cl)c(Cl)c2)c2ccccc21,-10.4%
16,O=C(Oc1ccc(Cl)cc1N1C(=O)CCC1=O)c1ccco1,9.56%
17,O=C1CC(NCc2ccccc2F)C(=O)N1c1ccccc1 (stereo not shown),12.5%
18,CCn1c(Cc2c(C)[nH]c3ccccc23)n[nH]c1=S,-13.4%
19,c1ccc(-c2ccc(-c3ccncn3)cc2)cc1,15.6%
20,Cc1ccc(C(=O)NCC(=O)OCCCn2c(=O)[nH]c3ccccc32)cc1,7.53%

row,SMILES,"hERG current change (%, negative = inhibition) at 1uM"
1,C=C(C)Cn1cnc2c(oc3nc4c(cc32)CCCC4)c1=O,10.1%
2,C=CC(=O)NC(C)(C)CCN1CCOCC1,8.55%
3,Clc1nc(-c2ccccc2)cc(-c2ccccc2)n1,-1.29%
4,COCCn1c(=O)[nH]c2cc(C(=O)NC(C)C)ccc2c1=O,18.4%
5,CC(=O)c1c(C)n(-c2cccc(Cl)c2)c2ccc(O)cc12,7.93%
6,Cc1ccc(NC(=O)CCNS(=O)(=O)c2cccc3nsnc23)cc1F,7.62%
7,O=C1N/C(=N/O)S/C1=C/c1cccc([N+](=O)[O-])c1,20.8%
8,CC(=O)N1C(=O)C2(C(C#N)=C(N)Oc3n[nH]c(-c4ccccn4)c32)c2ccccc21 (stereo not shown),4.15%
9,Br.Cc1ccc(C(=O)CN(Cc2ccccc2)C2=NCCS2)cc1,5.46%
10,CC1CC(=O)Nc2ccccc2N1C(=O)COc1ccc2cc(Br)ccc2c1 (stereo not shown),11.3%
11,COc1ccccc1OCc1ccc(C(=O)NCCN(C)C)o1,8.42%
12,COc1ccc(CN2CCOCC2)cc1Br,0.085%
13,S=C(NCC1(c2ccccc2)CCCC1)Nc1ccccc1,13.5%
14,Cc1ccc(OC(=O)c2cc3ccccc3o2)cc1,12.9%
15,O=C(NC1CCCC1)C(c1ccccc1F)N(C(=O)c1csnn1)C1CC1 (stereo not shown),10.5%
16,COC(OC)c1ccnc(-c2ccc(OC(=O)c3ccccc3)cc2)n1,18.4%
17,CC(C)CC(=O)NC1(C(F)(F)F)NC(=O)N(c2ccccc2)C1=O (stereo not shown),10.3%
18,COc1ccc(C(=O)NCc2ccc3c(c2)OCO3)cc1S(=O)(=O)NCc1ccc(Cl)cc1,-9.15%
19,O=Cc1sc(N2CCOCC2)nc1-c1ccccc1,8.95%
20,COC(=O)c1sccc1NC(=O)COc1ccc(C)cc1,12.1%

row,SMILES,"hERG current change (%, negative = inhibition) at 1uM"
1,Nc1ccc(S(=O)(=O)c2cccc(N)c2)cc1,4.78%
2,CC1C(=O)OC(c2ccc(Cl)cc2)C(C)(C)C1=O (stereo not shown),10.9%
3,C/C(=N\Nc1cc(N2CCOCC2)nc(C)n1)c1ccc(F)cc1,15.9%
4,CN1CCCN(C(=O)c2ccc(Br)s2)CC1,1.6%
5,O=Nc1onc(-c2ccc([N+](=O)[O-])cc2)c1NO,4.96%
6,O=C(Cc1ccccc1)N1CCN(Cc2ccccc2Cl)CC1.O=C(O)C(=O)O,15.7%
7,Cc1ccc2c(c1)NCC(C(=O)NCc1ccccc1)O2 (stereo not shown),10.4%
8,O=c1[nH]c(C2CCN(S(=O)(=O)c3ccc4c(c3)OCCO4)CC2)nc2c1nnn2Cc1cccc(F)c1,15%
9,O=C(c1ccc(CS(=O)(=O)c2c(Cl)cccc2Cl)o1)N1CCCC1,-3.65%
10,CC(C)C[C@H](NC(=O)N1c2ccccc2NC(=O)[C@@H]1C(C)C)C(=O)N[C@@H](Cc1ccccc1)C(=O)O,4.94%
11,CSc1nc(-c2ccccc2)nc(N2CCOCC2)c1C(C)=O,15.4%
12,O=C(Nc1ncc(Cc2ccccc2)s1)C1=NCCN1,5.75%
13,CN(CC(=O)Nc1nc2ccccc2s1)S(=O)(=O)c1ccccc1,10.5%
14,COc1ccc(Cc2nc(=S)[nH][nH]2)cc1Br,6.38%
15,O=C(O)C1Cc2c([nH]c3ccccc23)C(c2ccc3c(c2)OCO3)N1 (stereo not shown),12.7%
16,Cc1ccc(NC(=O)CSc2nnc(C3COc4ccccc4O3)o2)c(Cl)c1 (stereo not shown),8.71%
17,N#Cc1c(NC(=O)c2cc(-n3cnnc3)ccc2Cl)sc2c1CCCC2,4.88%
18,O=C1C(Cl)=C(N2CCOCC2)C(=O)N1CCc1ccccc1,-11.8%
